This note sets out measurements from article PMC12136788.

The labels stand for the following.
T1: UNK ZnF1-6 (called full-length) (human, UniProt Q9C0B0 30-357)
T1 sequence: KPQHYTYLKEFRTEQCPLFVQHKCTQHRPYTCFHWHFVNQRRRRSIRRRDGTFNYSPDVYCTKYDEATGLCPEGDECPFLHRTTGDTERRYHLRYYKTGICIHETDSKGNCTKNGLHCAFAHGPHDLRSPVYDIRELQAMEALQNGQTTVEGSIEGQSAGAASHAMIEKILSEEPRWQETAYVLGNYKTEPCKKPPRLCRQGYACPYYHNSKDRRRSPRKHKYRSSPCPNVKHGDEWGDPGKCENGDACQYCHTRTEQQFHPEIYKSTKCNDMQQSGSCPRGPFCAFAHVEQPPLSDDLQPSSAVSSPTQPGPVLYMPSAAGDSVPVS

B1: ENSG00000198589:be:win_901|CDS|ENSG00000198589|bound_else_gene|NA|bound_elsewhere_windowed (ssRNA)
RNA: GGGAGUUCUACAGUCCGACGAUCAUGGUUACCAUAGUACACAUCUAUAACCGAUGGAAGAAUAGUGAACUUCGAUGUUAUGUGAAUGGUGAGCUGGCUUCCUAUGGAGAGAUAACAUGGUUUGUCAACACUAGCGAUACCUUUCAACAGAGGAUUGAGCAUCA
B2: chr5:14398947:14399058:+|CDS|ENSG00000038382|unk|total|mutant (ssRNA)
RNA: GGGAGUUCUACAGUCCGACGAUCCCCAAAAACCUUAAUUCGAAAGGGUCGAGAACGGCAUCUCUUCCUUUUUGAAAUGUCCUCCGUAUUCCGUAAAGAAGUGAAAGAUUCCAGUGGGAGAAGCAAGUACCUUUAUAAAAGCAACAACAGAGGAUUGAGCAUCA
B3: chr2:219567793:219567894:-|CDS|ENSG00000124006|msi1|total|mutant (ssRNA)
RNA: GGGAGUUCUACAGUCCGACGAUCCCUGCCCCGGAAGCUCGACGUCCUGGAAGGAGAGAAUGCUGUGCUGCCCGUGGAAACUCCCGAGGCCGGGGUCGAGGGACGCUGGAGCCGUGAUGGGGAGGAGCUGCCGGUCAUCUGCCACAACAGAGGAUUGAGCAUCA
B4: chr21:31659700:31659757:+|5pUTR|ENSG00000142168|msi1_unk|FALSE|overlapping (ssRNA)
RNA: GGGAGUUCUACAGUCCGACGAUCCGAGGCGCGGAGGUCUGGCCUAUAAAGUAGUCGCGGAGACGGGGUGCUGGUUUGCGUCGUAGUCUCCUGCAGCGUCUGGGGUUUCCGUUGCAGUCCUCGGAACCAGGACCUCGGCGUGGCCAACAGAGGAUUGAGCAUCA
B5: ENSG00000131238:stop:overlap|stop_codon|ENSG00000131238|stop_codon|NA|stop_codon (ssRNA)
RNA: GGGAGUUCUACAGUCCGACGAUCCUUCACCUCCCAUGAUCAAUCUGAUCUCGGUUGGGGGACAACAUCAAGUGCCUUGUGCAUAGUGGGUAUUCGAUACAUCAUUAUUGAAGGAGUGGAUAUUUGUCAUCUACCACUGUAGGUCAACAGAGGAUUGAGCAUCA
B6: chr3:50299934:50300035:-|3pUTR|ENSG00000114378|unk|total|mutant (ssRNA)
RNA: GGGAGUUCUACAGUCCGACGAUCCGUUGCCCAAGGUUGCACAGCAAGAAAAGGGAGAAGUUGAGAUUCAAACCCAGGCUGUCCCGCUCCGGGGGUACAGCCCUUGCACUCCUACUGAGUUUGUGGUAACCAGCCCUGCACGACCAACAGAGGAUUGAGCAUCA
B7: chr6:107870184:107870285:-|3pUTR|ENSG00000025796|msi1|FALSE|bound_elsewhere (ssRNA)
RNA: GGGAGUUCUACAGUCCGACGAUCUAAUAUUUCCUAUAAAAGGGUGAAAGCAGUUUCUUUCUCUAUAACCUCAAUCACCAGUUUAGUGAGAGCCUUUCUUGGCAGGCAGGAGGCAGUGUCACUGAGGAUUUUUUUCAUUUACUUCAACAGAGGAUUGAGCAUCA
B8: chr1:117959336:117959438:+|CDS|ENSG00000065183|unk|FALSE|unique (ssRNA)
RNA: GGGAGUUCUACAGUCCGACGAUCGAUUAUCUCAAGAGGGAAUGCGAGGCAAAAAGUGAAGUUAUGUUUUUUGCUGAUGCUACUAGCCACUUGGAAGAGAAGAAGAGGAAGAGGAAAAAGAGGGAGAAGUUGAUUCUAACGUUGCAACAGAGGAUUGAGCAUCA
B9: chr11:839720:840371:-|three_prime_utr|ENSG00000177700|control|control|control (ssRNA)
RNA: GGGAGUUCUACAGUCCGACGAUCACUCUGGAAGGAACCAUCCAGUAAAGGUCUUUCAGAACCACUAAGGUCCCAGCCCUCACUAGGAUGUCAGGAGCCAGGUCUAGGCCCAGCUUUCACACUGUGGCAGCCCAGUGAAGCAGACAACAGAGGAUUGAGCAUCA
B10: chr11:95129132:95129233:+|CDS|ENSG00000149218|msi1|FALSE|bound_elsewhere (ssRNA)
RNA: GGGAGUUCUACAGUCCGACGAUCAAUCCUGAAGAACAUUGUCUAUUUCCUGUGGUGUGUUACCAAGCAGGUGAUUAAUGGCAUAGAAAGUUGCCUUUACCGCCUGGGCUCAGCCACCAUCUCAUACUUCAUGGCCAUUGGGGACAACAGAGGAUUGAGCAUCA
B11: chr13:24435276:24435388:-|CDS|ENSG00000102699|unk|FALSE|unique (ssRNA)
RNA: GGGAGUUCUACAGUCCGACGAUCCAAAAGAAAAAUGGAAUUAUCUCAGCCAGAAGUUUCUGAAGAUUUUGAAGAGGAUGGCUUAGGUGUACUACCAGCUUUCACAUCAAAUUUGGAACGUGGAGGUGUGGAAAAGCUAUUGGACAACAGAGGAUUGAGCAUCA
B12: chr14:71588152:71588260:+|CDS|ENSG00000197555|unk|total|mutant (ssRNA)
RNA: GGGAGUUCUACAGUCCGACGAUCGAAAACAUAAAAGAAUCCCGCCGUUCAAGCCAGGAAACCGAAACCUCAAGUUGCCUUGACCGCCUGUCCUCCAAAAGCAGUCCUGUGAGUCAGGGAAGUUCUGUCCGCCUCAAUUCCAAUCAACAGAGGAUUGAGCAUCA
B13: chr12:3284029:3284272:+|3pUTR|ENSG00000011105|msi1|FALSE|unique (ssRNA)
RNA: GGGAGUUCUACAGUCCGACGAUCCAUGUGGGUAUUCCCACAACAGGUUCUGCACACCCCAGUUAUUUCACAGACAUUCCUGCUAGAAACUGUCAGACAAAUACCUCUCUAGUUCGGAUGCUGCUCACUUUCCCCCUUGCUUCUCAACAGAGGAUUGAGCAUCA
B14: chr14:67647084:67651481:-|three_prime_utr|ENSG00000100568|control|control|control (ssRNA)
RNA: GGGAGUUCUACAGUCCGACGAUCGCUCGCCAUCCUGGGAGGCCUGGUUUACUACAAAUUCUUUCGCAGCCAUUGAACUUCUAUAGGGAAGGGUUUGUGGACCAGAACUUUGACCUUGUGAAUGCAUGAUGUUAGGGAUGUGGACAACAGAGGAUUGAGCAUCA
B15: ENSG00000070961:be:win_4051|3pUTR|ENSG00000070961|bound_else_gene|NA|bound_elsewhere_windowed (ssRNA)
RNA: GGGAGUUCUACAGUCCGACGAUCAUUUCUGCUGUUGGCUGUUAAUAAUUUGGAUUAUUUAUGUUUAUAAAUGAUACAGAUCUGUUUACAAGGUUUGUAGAUACUUUUUUUGUUCCUGUUCAUAGAUGGGAAGCUUCCUUAUAACAACAGAGGAUUGAGCAUCA
B16: chr1:64777895:64778004:+|CDS|ENSG00000162437|unk|FALSE|bound_elsewhere (ssRNA)
RNA: GGGAGUUCUACAGUCCGACGAUCGGAUUUGUGGAAUACAUGAAAAAGGACUUUGCUGCAAAGGCUAGACUGGAGCUAUUGGGUAGACAGUUGGGAGCAUCAGCACUCUUUGCACAAUGGAUGGAUGUUAAUCUAUUGGCUUCACAACAGAGGAUUGAGCAUCA
B17: chr1:150960872:150960973:+|CDS|ENSG00000143379|unk|FALSE|unique (ssRNA)
RNA: GGGAGUUCUACAGUCCGACGAUCGGACUCCCACCCCCCAGAUCUUGGACCCCCACAUAUUCCUGUUCCUCCCUCAAUCCCUGUAGGUGGCUGCAAUCCACCUUCCUCCGAAGAGACACCCAAGAACAAGGUGGCCUCAUGGUUCAACAGAGGAUUGAGCAUCA
B18: chr17:48058596:48058697:+|CDS|ENSG00000082641|msi1|total|mutant (ssRNA)
RNA: GGGAGUUCUACAGUCCGACGAUCCAAUGGCACAGCCAAUGACACAGCAGGCCCAGAGCUGCCUGACCCUUUGGGGGGUCUGUCCGAUGAAGCUAUGUUGGAUGAGAUCAGCCUUAUGGACCUGGCCAUUGAAGAAGGCUUUAACAACAGAGGAUUGAGCAUCA
B19: ENSG00000136451:be:win_1|CDS|ENSG00000136451|bound_else_gene|NA|bound_elsewhere_windowed (ssRNA)
RNA: GGGAGUUCUACAGUCCGACGAUCAUGGAGGCCAACUGGACCGCGUUCCUGUUCCAGGCCCAUGAAGCUUCCCAUCACCAACAGCAGGCAGCACAGAACAGCUUGCUGCCCCUCCUGAGCUCUGCCGUGGAGCCCCCUGAUCAGCAACAGAGGAUUGAGCAUCA
B20: chr12:16548371:16551327:-|three_prime_utr|ENSG00000048540|control|control|control (ssRNA)
RNA: GGGAGUUCUACAGUCCGACGAUCCAUUCUUUUAUCUUUUUUGCUCCACAUGUACAUAAGAAUUGACACAGGAACCUACUGAAUAGCGUAGAUAUAGGAAGGCAGGAUGGUUAUAUGGAAUAAAAGGCGGACUGCAUCUGUAUGCAACAGAGGAUUGAGCAUCA
B21: ENSG00000148488:stop:overlap|stop_codon|ENSG00000148488|stop_codon|NA|stop_codon (ssRNA)
RNA: GGGAGUUCUACAGUCCGACGAUCAAGAGUCUAAAGCAAGACAAAAGUGCAAAACAAAAAGAAAAACUAUAAACUCCAUCUUGUAGAUUUGUAGAUUCGCCACAACCAAGUCUGACUGUGACACUCCCAAGAAAUCUGUAUGUACAACAGAGGAUUGAGCAUCA
B22: chr6:30541380:30546071:-|three_prime_utr|ENSG00000204590|control|control|control (ssRNA)
RNA: GGGAGUUCUACAGUCCGACGAUCCUGACCUGGGGGUAUCUCCCCUCUGCCACCCCAAUUGUGAAUAAAGAUUGUUUGCUUUGUAGCCCCUUCCCCAGAUGAACUGAGGUGAGAGCGGCUGUUCCAGGCUAACAGCUGUGGGAGCAACAGAGGAUUGAGCAUCA

Some of the results follow.

This assay deals with T1, UNK ZnF1-6 (called full-length). Nature of the assay: nsRBNS (natural sequence RNA bind-n-seq); RBNS binding buffer (assumed for nsRBNS): 25 mM Tris pH 7.5, 150 mM KCl, 3 mM MgCl2, 0.01% Triton X-100, 500 ug/ml BSA, 20 U/ml SUPERase-In, 4 C; UNK is unkempt and MSI1 is Musashi-1; names of the RNAs are library labels; protein concentration not given here; high values mean tight binding.
With B1, the binding signal came out at 0.547 enrichment R.

B2 registered a binding signal of 0.448 enrichment R. The same measure for B3: 0.893 enrichment R. Regarding B4, the binding signal amounted to 0.818 enrichment R.

B5 came in with a binding signal of 1.21 enrichment R. As for B6, the binding signal turned out to be 0.518 enrichment R. Molecule B7 came in with a binding signal of 0.552 enrichment R. The molecule B8 returned a binding signal of 0.838 enrichment R. B9 registered a binding signal of 0.546 enrichment R. The same measure for B10: 0.508 enrichment R; for B11: 0.442 enrichment R; for B12: 0.759 enrichment R. B13: the binding signal came out at 0.687 enrichment R. With B14 the figure was 0.965 enrichment R. Molecule B15 yielded a binding signal of 0.658 enrichment R. Molecule B16 gave a binding signal of 0.595 enrichment R. On to B17, for which the binding signal was found to be 0.698 enrichment R.

B18 had a binding signal of 0.557 enrichment R. With B19 the figure was 0.911 enrichment R.

For the molecule B20, the binding signal was 0.9 enrichment R. Molecule B21 returned a binding signal of 0.503 enrichment R. B22 registered a binding signal of 0.746 enrichment R.
